# Data: a collection of fitness landscapes (doi:10.1016/j.celrep.2020.107928)
# The full ranking holds about 81,000 sequences; the median of “one-hybrid fitness for binding parS DNA” is about -0.17, and the highest 2% start at about 0.51. The list shows a part of the results.
# B1: Caulobacter ParB omega fusion; a variant is named by its letters at X, in order, B8GW30 (parent)
# chain: MESVVVGEPGMSEGRRGLGRGLSALLGEVDAAPAQAPGEQLGGSREAPIEILQRNPDQPRRTFREEDLEDLSNSIREKGVLQPILVRPSPDTAGEYQIVAGERAWRAAQRAGLKTVPIMVRELDDLAVLEIGIIENVQRADLNVLEEALSYKVLMEKFERTQENIAQTIGKSXSHVANXMRLLXLPDEVQSYLVSGELTAXHARAIAAAADPVALAKQIIEGGLSVRETEALARKAPNLSAGKSKGGRPPRVKDTDTQALESDLSSVLGLDVSIDHRGSTGTLTITYATLEQLDDLCNRLTRGI
# Variants of: B1
# Assay: one-hybrid fitness for binding parS DNA (scaled: cognate 1, non-cognate 0); higher = stronger binding
# Conditions: with parS DNA site
# How it was run: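 Pre- and post-selection plasmids were Illumina-sequenced, three replicate libraries were pooled, and any variant with under 10 reads was removed. The libraries were Caulobacter ParB with four specificity codons randomised, selected in E. coli USO through a HIS3 reporter whose site is 19 bp from the promoter. Cells grew 48 hours at 37°C on M9 without histidine, with 0.1 mM IPTG and 5 mM 3-AT. Fitness is the log change in variant-to-wild-type read ratio, rescaled against cognate and non-cognate.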
row,Variant,one-hybrid fitness for binding parS DNA
1,SFPN,≤ 0.2
2,HQKG,≤ 0.2
3,SALC,≤ 0.2
4,QTYQ,≤ 0.2
5,CAKV,≤ 0.2
6,HHLS,≤ 0.2
7,RTLH,0.232
8,AQKS,≤ 0.2
9,RFLC,0.85
10,RLMG,1.02
11,EPTL,≤ 0.2
12,RISM,0.352
13,RENK,≤ 0.2
14,ARKI,≤ 0.2
15,QTLP,≤ 0.2
16,SHCY,≤ 0.2
17,LPAD,≤ 0.2
18,RFTM,0.285
19,YPMS,≤ 0.2
20,QWPS,≤ 0.2
21,VPPT,≤ 0.2
22,RKSD,≤ 0.2
23,DNLT,≤ 0.2
24,TQCH,≤ 0.2

row,Variant,one-hybrid fitness for binding parS DNA
1,GAMS,≤ 0.2
2,HVVC,≤ 0.2
3,NFRT,≤ 0.2
4,KGCT,≤ 0.2
5,WALR,≤ 0.2
6,HHHI,≤ 0.2
7,DTAR,≤ 0.2
8,EKLT,≤ 0.2
9,WLFT,≤ 0.2
10,TTCR,≤ 0.2
11,QAIY,≤ 0.2
12,KCTI,≤ 0.2
13,RCDH,0.231
14,QPTE,≤ 0.2
15,WLCG,≤ 0.2
16,PSGV,≤ 0.2
17,AMIC,≤ 0.2
18,GLRV,≤ 0.2
19,AEPD,≤ 0.2
20,LHMV,≤ 0.2
21,ICNR,≤ 0.2
22,PTSG,≤ 0.2
23,EYSS,≤ 0.2
24,ALWC,≤ 0.2

row,Variant,one-hybrid fitness for binding parS DNA
1,KIFR,≤ 0.2
2,QLPS,≤ 0.2
3,WYVR,≤ 0.2
4,QDRI,≤ 0.2
5,SHAS,≤ 0.2
6,TWNV,≤ 0.2
7,GSAM,≤ 0.2
8,LASC,≤ 0.2
9,KCML,≤ 0.2
10,ILVP,≤ 0.2
11,HCKL,≤ 0.2
12,QTHK,≤ 0.2
13,DASQ,≤ 0.2
14,VQKV,≤ 0.2
15,IIMS,≤ 0.2
16,RMKS,0.832
17,SHWS,≤ 0.2
18,AASR,≤ 0.2
19,QFDM,≤ 0.2
20,RAPD,≤ 0.2
21,QHAL,≤ 0.2
22,IHYA,≤ 0.2
23,GTEM,≤ 0.2
24,MLAC,≤ 0.2

row,Variant,one-hybrid fitness for binding parS DNA
1,TKSS,≤ 0.2
2,VLEI,≤ 0.2
3,QRSS,≤ 0.2
4,PACV,≤ 0.2
5,TFRY,≤ 0.2
6,WCPG,≤ 0.2
7,QTIV,≤ 0.2
8,DLSP,≤ 0.2
9,TAYP,≤ 0.2
10,TYYA,≤ 0.2
11,FCYG,≤ 0.2
12,RFAD,≤ 0.2
13,ERWR,≤ 0.2
14,QKPP,≤ 0.2
15,QNES,≤ 0.2
16,LKVS,≤ 0.2
17,QGHL,≤ 0.2
18,RTVN,0.387
19,ACAY,≤ 0.2
20,SHTF,≤ 0.2
21,SLDN,≤ 0.2
22,PHSM,≤ 0.2
23,PDKC,≤ 0.2
24,MPFG,≤ 0.2

row,Variant,one-hybrid fitness for binding parS DNA
1,GNCC,≤ 0.2
2,WRLV,≤ 0.2
3,EWQR,≤ 0.2
4,SIVF,≤ 0.2
5,QGLK,≤ 0.2
6,TEVT,≤ 0.2
7,HQAA,≤ 0.2
8,IYVY,≤ 0.2
9,IRYG,≤ 0.2
10,RHPR,≤ 0.2
11,QPAI,≤ 0.2
12,TQAN,≤ 0.2
13,TGTT,≤ 0.2
14,QHSQ,≤ 0.2
15,CYEG,≤ 0.2
16,FNLT,≤ 0.2
17,IQPW,≤ 0.2
18,NMTE,≤ 0.2
19,SPAQ,≤ 0.2
20,NWTG,≤ 0.2
21,RASL,≤ 0.2
22,NAHS,≤ 0.2
23,QVNP,≤ 0.2
24,ALSD,≤ 0.2

row,Variant,one-hybrid fitness for binding parS DNA
1,CRCF,≤ 0.2
2,MRSS,≤ 0.2
3,LQLN,≤ 0.2
4,RPCT,≤ 0.2
5,HTNC,≤ 0.2
6,ESNW,≤ 0.2
7,PGEG,≤ 0.2
8,IDVT,≤ 0.2
9,HPTT,≤ 0.2
10,TLQF,≤ 0.2
11,AKAV,≤ 0.2
12,VGSC,≤ 0.2
13,EPMR,≤ 0.2
14,STQK,≤ 0.2
15,PFPR,≤ 0.2
16,DSRT,≤ 0.2
17,KFHG,≤ 0.2
18,CFSR,≤ 0.2
19,DSKA,≤ 0.2
20,PRMC,≤ 0.2
21,GAGT,≤ 0.2
22,FDAG,≤ 0.2
23,GMRD,≤ 0.2
24,LNAM,≤ 0.2

row,Variant,one-hybrid fitness for binding parS DNA
1,CERM,≤ 0.2
2,IFKG,≤ 0.2
3,RSTE,≤ 0.2
4,WIPH,≤ 0.2
5,IHKG,≤ 0.2
6,EPES,≤ 0.2
7,LWDR,≤ 0.2
8,RHMY,0.383
9,EGSY,≤ 0.2
10,MIFG,≤ 0.2
11,PVAE,≤ 0.2
12,ARMH,≤ 0.2
13,HAIS,≤ 0.2
14,QFYM,≤ 0.2
15,HLQF,≤ 0.2
16,SHMK,≤ 0.2
17,AYHA,≤ 0.2
18,NMLG,≤ 0.2
19,RWQW,≤ 0.2
20,GYFC,≤ 0.2
21,KTMG,≤ 0.2
22,RMCE,≤ 0.2
23,REAS,0.212
24,YMAE,≤ 0.2

row,Variant,one-hybrid fitness for binding parS DNA
1,RTYV,≤ 0.2
2,TKVW,≤ 0.2
3,LVHT,≤ 0.2
4,HLHM,≤ 0.2
5,EMRS,≤ 0.2
6,YQIW,≤ 0.2
7,PRMI,≤ 0.2
8,LKAC,≤ 0.2
9,HDNM,≤ 0.2
10,AAET,≤ 0.2
11,SGLL,≤ 0.2
12,VQVS,≤ 0.2
13,RNNT,0.785
14,LNPS,≤ 0.2
15,LQHR,≤ 0.2
16,VRKI,≤ 0.2
17,PAQV,≤ 0.2
18,SVYE,≤ 0.2
19,VSPG,≤ 0.2
20,QHLM,≤ 0.2
21,IPPD,≤ 0.2
22,YACG,≤ 0.2
23,SLAS,≤ 0.2
24,RSGY,0.482

row,Variant,one-hybrid fitness for binding parS DNA
1,NASP,≤ 0.2
2,WNIT,≤ 0.2
3,TIRD,≤ 0.2
4,PVRP,≤ 0.2
5,VMIL,≤ 0.2
6,HHCV,≤ 0.2
7,EVHS,≤ 0.2
8,LMLD,≤ 0.2
9,YQMN,≤ 0.2
10,QNTV,≤ 0.2
11,IPEG,≤ 0.2
12,NCDG,≤ 0.2
13,TKDQ,≤ 0.2
14,TTDY,≤ 0.2
15,RRTT,0.565
16,ILLY,≤ 0.2
17,GIEA,≤ 0.2
18,SMPP,≤ 0.2
19,EMYW,≤ 0.2
20,VPGW,≤ 0.2
21,YPSA,≤ 0.2
22,SRMY,≤ 0.2
23,NITW,≤ 0.2
24,PENL,≤ 0.2

row,Variant,one-hybrid fitness for binding parS DNA
1,EFYS,≤ 0.2
2,QKNI,≤ 0.2
3,CYSH,≤ 0.2
4,RTQI,≤ 0.2
5,MDNV,≤ 0.2
6,AIYS,≤ 0.2
7,RRME,≤ 0.2
8,RMNC,0.969
9,WHHG,≤ 0.2
10,MQLG,≤ 0.2
11,QNRM,≤ 0.2
12,QPGR,≤ 0.2
13,EFSS,≤ 0.2
14,MPMW,≤ 0.2
15,SKAN,≤ 0.2
16,PHYG,≤ 0.2
17,NAGS,≤ 0.2
18,DGCF,≤ 0.2
19,DPYS,≤ 0.2
20,QDGF,≤ 0.2
21,TARI,≤ 0.2
22,GGVW,≤ 0.2
23,PRTT,≤ 0.2
24,HHYC,≤ 0.2

row,Variant,one-hybrid fitness for binding parS DNA
1,FGSG,≤ 0.2
2,ACQG,≤ 0.2
3,DSYK,≤ 0.2
4,TAVG,≤ 0.2
5,MVKM,≤ 0.2
6,RVIV,≤ 0.2
7,IHPG,≤ 0.2
8,VDNL,≤ 0.2
9,KSKY,≤ 0.2
10,KVRL,≤ 0.2
11,RFVI,≤ 0.2
12,MYYG,≤ 0.2
13,LYAA,≤ 0.2
14,ILYV,≤ 0.2
15,KVYM,≤ 0.2
16,SDYW,≤ 0.2
17,MADA,≤ 0.2
18,KLGA,≤ 0.2
19,QWAA,≤ 0.2
20,LIRV,≤ 0.2
21,FFRM,≤ 0.2
22,ITSG,≤ 0.2
23,LPCT,≤ 0.2
24,YVNR,≤ 0.2

row,Variant,one-hybrid fitness for binding parS DNA
1,WVYS,≤ 0.2
2,WLLV,≤ 0.2
3,TAKH,≤ 0.2
4,TTTR,≤ 0.2
5,DYQV,≤ 0.2
6,HKHS,≤ 0.2
7,CRFK,≤ 0.2
8,VMHR,≤ 0.2
9,SLKY,≤ 0.2
10,MNGC,≤ 0.2
11,AKSE,≤ 0.2
12,SRPV,≤ 0.2
13,REPY,≤ 0.2
14,RSYR,≤ 0.2
15,KFMR,≤ 0.2
16,IGPC,≤ 0.2
17,ACFG,≤ 0.2
18,MNKT,≤ 0.2
19,GLNA,≤ 0.2
20,TNLK,≤ 0.2
21,KITT,≤ 0.2
22,LRMH,≤ 0.2
23,GCLS,≤ 0.2
24,AHKG,≤ 0.2

row,Variant,one-hybrid fitness for binding parS DNA
1,VQTN,≤ 0.2
2,WIYT,≤ 0.2
3,QSWR,≤ 0.2
4,QRRV,≤ 0.2
5,GQKS,≤ 0.2
6,KQRY,≤ 0.2
7,NCKC,≤ 0.2
8,PSIC,≤ 0.2
9,QNHK,≤ 0.2
10,ASPS,≤ 0.2
11,PPGS,≤ 0.2
12,AVNA,≤ 0.2
13,VMNR,≤ 0.2
14,QEHN,≤ 0.2
15,PNLM,≤ 0.2
16,KCKG,≤ 0.2
17,DRLI,≤ 0.2
18,LKMV,≤ 0.2
